The campaign covered roughly 310,000 compounds. About 2,200 (0.71%) showed an effect of 50% or more. Effects have a minus sign here. The list shows a part of the results.

The assay deals with human ether-à-go-go-related gene (hERG) potassium channel (human, UniProt Q12809). The assay is described as follows: primary screen, population patch clamp on CHO cells stably expressing hERG.
Sequence of human ether-à-go-go-related gene (hERG) potassium channel (Q12809 whole entry, looked up): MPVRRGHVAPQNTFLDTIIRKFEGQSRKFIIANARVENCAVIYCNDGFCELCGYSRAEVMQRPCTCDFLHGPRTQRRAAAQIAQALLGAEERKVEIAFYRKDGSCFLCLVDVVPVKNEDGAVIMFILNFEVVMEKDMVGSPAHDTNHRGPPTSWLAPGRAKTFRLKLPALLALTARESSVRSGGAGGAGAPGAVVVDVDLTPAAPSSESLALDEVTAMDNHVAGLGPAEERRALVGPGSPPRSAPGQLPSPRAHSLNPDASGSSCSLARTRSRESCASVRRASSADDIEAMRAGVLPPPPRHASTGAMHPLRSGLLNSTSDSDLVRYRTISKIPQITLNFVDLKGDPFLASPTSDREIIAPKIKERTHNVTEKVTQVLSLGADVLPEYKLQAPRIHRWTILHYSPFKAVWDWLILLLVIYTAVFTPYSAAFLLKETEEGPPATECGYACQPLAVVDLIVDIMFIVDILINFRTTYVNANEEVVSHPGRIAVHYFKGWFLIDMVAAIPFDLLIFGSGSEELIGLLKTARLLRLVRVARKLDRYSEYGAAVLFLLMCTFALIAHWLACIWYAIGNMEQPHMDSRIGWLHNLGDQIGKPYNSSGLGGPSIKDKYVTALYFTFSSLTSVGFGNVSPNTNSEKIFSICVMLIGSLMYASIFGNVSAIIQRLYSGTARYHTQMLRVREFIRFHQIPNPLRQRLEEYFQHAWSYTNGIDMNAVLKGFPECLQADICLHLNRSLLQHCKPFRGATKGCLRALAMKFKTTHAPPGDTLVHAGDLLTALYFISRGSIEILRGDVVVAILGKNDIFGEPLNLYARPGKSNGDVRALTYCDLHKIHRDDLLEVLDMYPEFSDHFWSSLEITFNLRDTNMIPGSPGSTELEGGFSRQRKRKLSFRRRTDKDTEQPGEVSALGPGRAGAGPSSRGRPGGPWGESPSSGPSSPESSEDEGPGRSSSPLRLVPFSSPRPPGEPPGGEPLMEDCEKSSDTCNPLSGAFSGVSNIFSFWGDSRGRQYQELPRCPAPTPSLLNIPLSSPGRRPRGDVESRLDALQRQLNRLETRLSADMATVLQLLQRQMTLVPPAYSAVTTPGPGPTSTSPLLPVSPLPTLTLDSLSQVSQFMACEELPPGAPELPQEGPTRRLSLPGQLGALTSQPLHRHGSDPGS
As to `CCc1nnc(NC(=O)c2ccc(S(=O)(=O)N3CCCC(C)C3)cc2)o1` (centres unmarked), the “hERG current change (%, negative = inhibition) at 1uM” value amounted to 14.5%.

As to `CCCNC(=O)c1ccccc1NC(=O)c1cccc(-n2cnnn2)c1`, the “hERG current change (%, negative = inhibition) at 1uM” value is recorded as -2.11%. Consider `CCOc1ccccc1NC(=O)CSc1n[nH]c(=O)n1-c1ccccc1`, for which the “hERG current change (%, negative = inhibition) at 1uM” value stood at 14.8%. As for `Cc1cccc(N2CCN(S(=O)(=O)c3ccc4c(c3)NC(=O)C(C)S4)CC2)c1C` (centres unmarked), the figure is 11.1%; as for `O=C(O)CCCC(=O)N1N=C(c2ccccc2)CC1c1ccc2nccnc2c1` (centres unmarked), 7.53%; as for `C=CCSc1nc2c(cnn2-c2ccc(C)c(C)c2)c(=O)[nH]1`, 5.69%. As for `CC(C)Oc1ccc(S(=O)(=O)N2CCOCC2)cc1NC(=O)C1=COCCO1`, the figure is 11%; as for `CN(C)c1ccc(NC2=C(Cl)C(=O)c3ccccc3C2=O)cc1`, 18%. As for `O=C1COc2ccc(C(=O)COC(=O)Cc3ccccc3)cc2N1`, the figure is 10%; as for `O=C(O)c1ccc(-c2ccco2)n1Cc1ccccc1`, 10.2%; as for `Cc1ccc(/C=N/N2CCCCC2)o1`, 11.7%. For the compound `CC1=C(C#N)C(NC(=O)c2ccc(Cl)cc2)(C(F)(F)F)C(=O)N1` (centres unmarked), the “hERG current change (%, negative = inhibition) at 1uM” value is -1.43%.

On to `COc1ccc(Cl)cc1NC(=O)CN1CCN(Cc2ccccc2)CC1`, for which the “hERG current change (%, negative = inhibition) at 1uM” value was -32%.

As to `COCCOc1ccc(C(F)(F)F)cc1NC(=O)c1ccc(F)cc1`, the “hERG current change (%, negative = inhibition) at 1uM” value is listed as 8.11%. Regarding `CCOC(=O)c1c(-c2cccs2)csc1NC(=O)CN1CC(C)OC(C)C1` (centres unmarked), the “hERG current change (%, negative = inhibition) at 1uM” value was -1.73%. As for `Cn1nc(C(=O)N2CCCC2)c2ccccc2c1=O`, the figure is 18.6%.

For the compound `CCOC(=O)c1ccc(NC(=O)CN2C(=O)C(=O)N(CC(C)C)C2=O)cc1`, the “hERG current change (%, negative = inhibition) at 1uM” value was found to be 1.53%. As for `CC1(C)C(C#N)=C(N)Oc2c1c(=O)oc1ccccc21`, the figure is -1.73%. As for `Cc1cc(C(F)(F)F)c2sc(N)nc2n1`, the figure is 8.91%; as for `CCOC(=O)C1CCCN(c2c(NCCN(CC)c3ccccc3)c(=O)c2=O)C1` (centres unmarked), -5.33%. As for `Cc1ccc(CN2CCCN(Cc3cc(C)ccc3C)S2(=O)=O)cc1`, the figure is 13.8%. `CC(NC(=O)c1ccccc1C(=O)O)c1ccc(-n2ccnc2)cc1` (centres unmarked): the “hERG current change (%, negative = inhibition) at 1uM” value was determined as 5.44%. As for `COc1ccc(C(c2nnnn2Cc2cccs2)N2CCC(C(N)=O)CC2)c(OC)c1` (centres unmarked), the figure is 2.25%; as for `CCc1c(O)nc(SCC(N)=O)n(-c2ccccc2F)c1=O`, 6.17%. As for `CCC(Cc1ccccc1)NC(=O)C1CC1` (centres unmarked), the figure is 13.2%. Take `Cc1ccc(S(=O)(=O)c2nc(S(C)(=O)=O)sc2N(C)C)cc1`: the “hERG current change (%, negative = inhibition) at 1uM” value is 13.3%. As for `O=C(CN1C(=O)NC2(CCCCCC2)C1=O)c1ccc(OC(F)F)cc1OC(F)F`, the figure is 4.56%.

For `Cc1ccnc(SCC(=O)c2cccs2)n1`, the “hERG current change (%, negative = inhibition) at 1uM” value was determined as 9.86%. With `COc1cc(CNC2CCCCC2)c(Br)cc1OC1CCCC1`, the “hERG current change (%, negative = inhibition) at 1uM” value was determined as 4.44%.

For `CC(NC(=O)C(=S)N1CCN(C)CC1)c1ccccc1` (centres unmarked), the “hERG current change (%, negative = inhibition) at 1uM” value came to 8.9%.

Consider `COC(=O)c1ccc(S(=O)(=O)N2CCCCC2)o1`, for which the “hERG current change (%, negative = inhibition) at 1uM” value is 9.93%. As for `COc1ccc2c(CC(=O)Nc3c(C)n(C)n(-c4ccccc4)c3=O)coc2c1`, the figure is 20.1%; as for `Cc1ccc(C2(C)NC(=O)N(CC(=O)Nc3cc(S(=O)(=O)N4CCOCC4)ccc3C)C2=O)cc1` (centres unmarked), -9.42%; as for `CCC(C)(C)C(=O)Nc1ccc(C(N)=O)cc1`, 3.68%. Regarding `CC(C)c1cc(C(=O)N/N=C/C(Br)=C/c2ccccc2)n[nH]1`, the “hERG current change (%, negative = inhibition) at 1uM” value came out at 8.64%.

On to `CCOC(=O)C1=C(C)NC(=S)NC1c1ccc(OC(=O)c2ccco2)cc1` (centres unmarked), for which the “hERG current change (%, negative = inhibition) at 1uM” value stood at 10.4%.

As to `C#CCOCCOCCOCCNc1nc(N2CCN(C(=O)[C@H]([C@@H](C)CC)n3cc([C@@H](N)CO)nn3)CC2)nc(N2CCN(C(=O)[C@H](Cc3cc4ccccc4[nH]3)n3cc([C@@H](N)Cc4ccc(O)cc4)nn3)CC2)n1.Cl`, the “hERG current change (%, negative = inhibition) at 1uM” value is on record as 5.83%. As for `CCc1ccc(NC(=O)C2CCCN(S(=O)(=O)c3cccs3)C2)cc1` (centres unmarked), the figure is 9.22%; as for `COc1cc(CC2C(=O)Nc3ccccc32)cc(C)c1O` (centres unmarked), 10.3%; as for `COc1cc(NC(=S)N2CCN(C(=O)C3CCCO3)CC2)c(OC)cc1Cl` (centres unmarked), -4.08%. As for `COc1ccc(N2CCN(C(=O)c3ccc(CS(=O)Cc4ccc(C)cc4)o3)CC2)cc1` (centres unmarked), the figure is 9.46%; as for `Cc1ccc(OCC(=O)NCCNC(=O)c2cnccn2)cc1`, 13.2%.

Turning to `COCc1cc(CN2CCN(C)CC2)c(O)c2ncccc12`, the “hERG current change (%, negative = inhibition) at 1uM” value was determined as 11.3%. As for `COc1cccc(C(=O)Nc2nnc(-c3ccccc3)s2)c1`, the “hERG current change (%, negative = inhibition) at 1uM” value amounted to 13.7%. As for `COc1cccc(NC(=O)CSc2nnc(-c3cc(C)[nH]n3)n2N)c1`, the figure is 14.4%. As for `COc1ccccc1CNC(=O)C1CCCN(S(=O)(=O)c2cccc3nsnc23)C1` (centres unmarked), the figure is 6.86%; as for `O=C(CSc1nnc2ccccn12)NCCN1C(=O)CSC1=O`, 15.6%; as for `O=C1/C(=C/c2cccnc2)SC(=S)N1c1ccc(F)cc1`, 32.6%. As for `O=C1CCC(=O)N1CC(O)COc1ccccc1` (centres unmarked), the figure is 9.28%; as for `O=C(CCNC(=O)c1ccccc1)Nc1ccc(F)c(Cl)c1`, 8.53%; as for `COc1ccc(-c2cc(C(=O)NNC(=S)NC(=O)c3c(-c4ccccc4)noc3C)[nH]n2)cc1`, 11.9%. With `Cc1ccc(NC(=O)N2CCCC2C(=O)NCc2ccc(Cl)cc2)cc1` (centres unmarked), the “hERG current change (%, negative = inhibition) at 1uM” value came out at 5.86%. For the compound `CC(Oc1ccccc1F)C(=O)NN` (centres unmarked), the “hERG current change (%, negative = inhibition) at 1uM” value is on record as 5.81%.

Turning to `Cc1cc(NC(=O)COC(=O)CCNS(=O)(=O)c2cccc(C(F)(F)F)c2)no1`, the “hERG current change (%, negative = inhibition) at 1uM” value is 14.2%.

As for `O=C(NC(=S)Nc1cccc2ncccc12)c1ccccc1`, the “hERG current change (%, negative = inhibition) at 1uM” value is -0.467%.

In the case of `CC1CC(C)(C)CC2(C1)NC(=O)N(CC(=O)NCC(c1ccco1)N1CCCCC1)C2=O` (centres unmarked), the “hERG current change (%, negative = inhibition) at 1uM” value is on record as -15.8%. In the case of `COC(=O)c1ccc(Nc2c([N+](=O)[O-])ccc3nonc23)cc1`, the “hERG current change (%, negative = inhibition) at 1uM” value amounted to 13%.

For `O=C(CCN1CCCCC1)Nc1ccc(Cl)cc1C(=O)c1ccccc1`, the “hERG current change (%, negative = inhibition) at 1uM” value was -42.9%. As for `COc1ccc(-c2nc(CS(=O)CC(=O)NCc3cccnc3)c(C)o2)cc1` (centres unmarked), the “hERG current change (%, negative = inhibition) at 1uM” value is 11.6%. `COCCCn1c(SCC(=O)Nc2ccc3c(c2)OCCO3)nnc1-c1ccoc1C`: the “hERG current change (%, negative = inhibition) at 1uM” value stood at 1.88%. As for `COc1cc(/C=C2\SC(=S)N(NC(=O)c3ccc(O)c(OC)c3)C2=O)ccc1O`, the figure is 13.4%. With `Fc1cccc(Cl)c1CSc1ccc(-c2cccnc2)nn1`, the “hERG current change (%, negative = inhibition) at 1uM” value is on record as 0.367%. As to `C=CCc1ccccc1OCCn1nnc2ccccc21`, the “hERG current change (%, negative = inhibition) at 1uM” value is recorded as 19.6%. For the compound `CCn1c(=O)c(=O)[nH]c2c(=O)oc3ccc(S(=O)(=O)Nc4ccc(OC)cc4)cc3c21`, the “hERG current change (%, negative = inhibition) at 1uM” value turned out to be 13.8%. With `Cc1cc(C(=O)NNC(=O)c2ccc(Cl)cc2)no1`, the “hERG current change (%, negative = inhibition) at 1uM” value is recorded as 8.02%. As for `O=c1nc2ccccc2c2n1CC(CN1CCN(C(c3ccccc3)c3ccccc3)CC1)N2` (centres unmarked), the figure is -9.49%; as for `N#CC(c1ccccc1)c1ccc2c(C(F)(F)F)cc(C(F)(F)F)nc2n1` (centres unmarked), 12.7%. For `Cc1ccc(OCC(=O)Nc2ccc3c(c2)C(=O)NC3=O)cc1`, the “hERG current change (%, negative = inhibition) at 1uM” value turned out to be 7.91%. As for `CC(C)Cc1nc(Cl)c(C#N)c2c1CCC2`, the figure is 7.58%; as for `CCOc1cc(/C=N/Nc2ccc(C(=O)O)cc2)ccc1OC(=O)c1ccccc1C`, 6.66%. As for `O=C(NC1CC2CCCC(C1)N2C(=O)Nc1ccc(Cl)c(C(F)(F)F)c1)C1CC1` (centres unmarked), the figure is 13%; as for `CNCC(=O)c1ccccc1.Cl`, 0.119%; as for `COCCn1c(SCc2ccc(C)cc2)nc2c1c(=O)[nH]c(=O)n2C`, 10.2%. As for `CCc1ccccc1NC(=O)c1cc(-c2cccc(O)c2)on1`, the figure is 10.1%. Regarding `O=C1c2ccccc2C(Nc2ccc(F)cc2F)N1CCN1CCOCC1` (centres unmarked), the “hERG current change (%, negative = inhibition) at 1uM” value was found to be 12.1%. As for `CCN1C(=O)[C@H]2[C@@H](c3ccc(C)cc3)N3C(=O)N(c4cccc(F)c4)C(=O)[C@@]3(C)[C@H]2C1=O`, the figure is 14.2%; as for `Cc1cccc2sc(N(CCCN(C)C)C(=O)c3ccc(S(=O)(=O)N4CCc5ccccc5C4)cc3)nc12.Cl`, 6.29%. As for `CCC(Oc1cc(Cl)ccc1Cl)C(=O)N1CCC2(CC1)OCCO2` (centres unmarked), the “hERG current change (%, negative = inhibition) at 1uM” value is 10.1%. As for `Cc1ccc(N=Cc2sccc2C)cc1C`, the figure is 16.7%. Take `Cc1csc(NC(=O)c2ccc(N3CCCC3=O)cc2)n1`: the “hERG current change (%, negative = inhibition) at 1uM” value worked out at 16.7%. As for `Cc1c(O)c2cccnc2[nH]c1=O`, the “hERG current change (%, negative = inhibition) at 1uM” value was determined as 19.4%.

`Cc1cccc(CN2CCC(C(N)=O)CC2)c1`: the “hERG current change (%, negative = inhibition) at 1uM” value worked out at 17.4%. As for `O=[N+]([O-])c1cccnc1Oc1ccc(F)cc1`, the figure is 10.8%.

As to `O=C(Nc1ccc(S(=O)(=O)N2CCCC2)cc1)c1cccnc1Cl`, the “hERG current change (%, negative = inhibition) at 1uM” value turned out to be 0.883%.

As to `CCCCCOC(=O)C1=C(C)Nc2ncnn2C1c1cccs1` (centres unmarked), the “hERG current change (%, negative = inhibition) at 1uM” value is 5.88%.

Turning to `COc1ccc(NC(=S)Nc2ccc(C)c(S(=O)(=O)N3CCCCC3)c2)cc1`, the “hERG current change (%, negative = inhibition) at 1uM” value was found to be 10.6%.

With `O=C(NC1CC1)c1ccc(-c2nc3ccccc3s2)s1`, the “hERG current change (%, negative = inhibition) at 1uM” value is 10.4%. With `COc1ccc(CN2CCN(S(=O)(=O)c3ccc(C)cc3)CC2)cc1OC`, the “hERG current change (%, negative = inhibition) at 1uM” value was 10.2%. As for `Cc1cc(Cl)c(S(=O)(=O)N2CCN(c3ccc(F)cc3)CC2)cc1OCC(N)=O`, the figure is 10%.

For the origin of these results see article PMC4336329 (PLoS ONE, 2015).
